Test results as given in a collection of fitness landscapes (doi:10.1016/j.celrep.2020.107928).
Over roughly 81,000 sequences, “one-hybrid fitness for binding parS DNA” has its median near -0.17; the highest 2% begin near 0.51. This is one part of the list.

B1: Caulobacter ParB omega fusion; a variant is named by its letters at X, in order, B8GW30 (parent)
chain: MESVVVGEPGMSEGRRGLGRGLSALLGEVDAAPAQAPGEQLGGSREAPIEILQRNPDQPRRTFREEDLEDLSNSIREKGVLQPILVRPSPDTAGEYQIVAGERAWRAAQRAGLKTVPIMVRELDDLAVLEIGIIENVQRADLNVLEEALSYKVLMEKFERTQENIAQTIGKSXSHVANXMRLLXLPDEVQSYLVSGELTAXHARAIAAAADPVALAKQIIEGGLSVRETEALARKAPNLSAGKSKGGRPPRVKDTDTQALESDLSSVLGLDVSIDHRGSTGTLTITYATLEQLDDLCNRLTRGI

Variants of: B1
Assay: one-hybrid fitness for binding parS DNA (scaled: cognate 1, non-cognate 0); higher = stronger binding
Details: with parS DNA site
Method in brief: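 Fitness is the rescaled log change in variant-to-wild-type read ratio, measured by Illumina sequencing of plasmids before and after bacterial one-hybrid selection. The scale puts cognate at 1 and non-cognate at 0. Selection of Caulobacter ParB libraries, four specificity codons randomised, took place in E. coli USO with a HIS3 reporter, site 19 bp from the promoter, over 48 hours at 37°C on M9-minus-histidine with 0.1 mM IPTG and 5 mM 3-AT.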

Variant	one-hybrid fitness for binding parS DNA
KVDN	≤ 0.2
SVSC	≤ 0.2
KQRS	≤ 0.2
YRSQ	≤ 0.2
PGLT	≤ 0.2
QNYC	≤ 0.2
RAFW	0.243
CKRK	≤ 0.2
DCCG	≤ 0.2
RIQF	0.272
LLME	≤ 0.2
TWHC	≤ 0.2
VQVG	≤ 0.2
LREQ	≤ 0.2
GVNR	≤ 0.2
WRRR	≤ 0.2
QERN	≤ 0.2
RVEF	≤ 0.2
CRQS	≤ 0.2
NFVR	≤ 0.2
GGCW	≤ 0.2
CVMG	≤ 0.2
PMNV	≤ 0.2
KCSS	≤ 0.2
ANRW	≤ 0.2

Variant	one-hybrid fitness for binding parS DNA
APSR	≤ 0.2
LTPV	≤ 0.2
LDDS	≤ 0.2
QVTL	≤ 0.2
CATT	≤ 0.2
LLLA	≤ 0.2
GTRS	≤ 0.2
GFQC	≤ 0.2
FACG	≤ 0.2
QNLC	≤ 0.2
ELLH	≤ 0.2
PQAC	≤ 0.2
HMPM	≤ 0.2
NKSS	≤ 0.2
HAPE	≤ 0.2
NCNP	≤ 0.2
DPTS	≤ 0.2
MKSS	≤ 0.2
NRNT	≤ 0.2
VFGC	≤ 0.2
GVQW	≤ 0.2
WVTK	≤ 0.2
TKRE	≤ 0.2
VWGC	≤ 0.2
QTKP	≤ 0.2

Variant	one-hybrid fitness for binding parS DNA
STNR	≤ 0.2
TFCS	≤ 0.2
QFAD	≤ 0.2
KHHC	≤ 0.2
MNDG	≤ 0.2
APWT	≤ 0.2
CAIN	≤ 0.2
GRSF	≤ 0.2
VMSV	≤ 0.2
RYYC	0.975
QQTT	≤ 0.2
WMNL	≤ 0.2
PFAM	≤ 0.2
DALY	≤ 0.2
DPEP	≤ 0.2
CVGA	≤ 0.2
PDVT	≤ 0.2
RNEL	≤ 0.2
TALG	≤ 0.2
VMKG	≤ 0.2
MVYK	≤ 0.2
QLDK	≤ 0.2
KSPS	≤ 0.2
LSEW	≤ 0.2
SLNH	≤ 0.2

Variant	one-hybrid fitness for binding parS DNA
LRKA	≤ 0.2
EFIV	≤ 0.2
QQKH	≤ 0.2
SKSS	≤ 0.2
ACEG	≤ 0.2
HRLA	≤ 0.2
PCRR	≤ 0.2
NVQR	≤ 0.2
RMFS	1.07
GESV	≤ 0.2
WCPM	≤ 0.2
TKFG	≤ 0.2
LAAI	≤ 0.2
GQIR	≤ 0.2
VLCT	≤ 0.2
QYQG	≤ 0.2
PSVD	≤ 0.2
PMQL	≤ 0.2
TRIA	≤ 0.2
NTAN	≤ 0.2
PRSE	≤ 0.2
VLTL	≤ 0.2
NLMF	≤ 0.2
SITS	≤ 0.2
PNHV	≤ 0.2

Variant	one-hybrid fitness for binding parS DNA
RDCG	≤ 0.2
LFRS	≤ 0.2
DKYG	≤ 0.2
REMR	≤ 0.2
ARQD	≤ 0.2
GAKA	≤ 0.2
KALS	≤ 0.2
FDSH	≤ 0.2
LYGF	≤ 0.2
GCDG	≤ 0.2
AVYN	≤ 0.2
VQMT	≤ 0.2
WKLT	≤ 0.2
THGC	≤ 0.2
FNMR	≤ 0.2
RPKM	≤ 0.2
VRCR	≤ 0.2
QNKF	≤ 0.2
QILK	≤ 0.2
AIKF	≤ 0.2
RMHQ	≤ 0.2
NSPY	≤ 0.2
RSQM	0.33
TTPW	≤ 0.2
KARA	≤ 0.2

Variant	one-hybrid fitness for binding parS DNA
RIII	≤ 0.2
TKWI	≤ 0.2
CWIT	≤ 0.2
GRLK	≤ 0.2
ELGS	≤ 0.2
DKYR	≤ 0.2
RHAY	0.403
SDTT	≤ 0.2
AETS	≤ 0.2
TEID	≤ 0.2
TLSY	≤ 0.2
HCHS	≤ 0.2
SPHE	≤ 0.2
LARP	≤ 0.2
APFG	≤ 0.2
CPHW	≤ 0.2
LYSP	≤ 0.2
NRRK	≤ 0.2
IYGR	≤ 0.2
RHQF	≤ 0.2
PTLH	≤ 0.2
TPMC	≤ 0.2
RDNN	≤ 0.2
ISQC	≤ 0.2
LQRC	≤ 0.2

Variant	one-hybrid fitness for binding parS DNA
VVYC	≤ 0.2
TLVC	≤ 0.2
MDLK	≤ 0.2
QNIM	≤ 0.2
KWTT	≤ 0.2
RYCI	≤ 0.2
KPLW	≤ 0.2
DLDE	≤ 0.2
ACIV	≤ 0.2
DTES	≤ 0.2
TMFG	≤ 0.2
TGEK	≤ 0.2
NSYR	≤ 0.2
CAYC	≤ 0.2
KPFS	≤ 0.2
AMGS	≤ 0.2
CETY	≤ 0.2
IDHG	≤ 0.2
HGLA	≤ 0.2
RHTE	≤ 0.2
APRG	≤ 0.2
TGNL	≤ 0.2
AAPS	≤ 0.2
TWFR	≤ 0.2
CWTR	≤ 0.2

Variant	one-hybrid fitness for binding parS DNA
GCHV	≤ 0.2
ERDV	≤ 0.2
HCFT	≤ 0.2
TSKW	≤ 0.2
HWSK	≤ 0.2
SYDC	≤ 0.2
PNGT	≤ 0.2
ENPA	≤ 0.2
IRRA	≤ 0.2
SNGL	≤ 0.2
IVHR	≤ 0.2
ATVR	≤ 0.2
RIPT	0.549
TVSD	≤ 0.2
QCQP	≤ 0.2
WSNA	≤ 0.2
SRDD	≤ 0.2
KKRC	≤ 0.2
GGVI	≤ 0.2
RRTH	≤ 0.2
